Laboratory results reported in PubChem BioAssay AID485294 (National Center for Advancing Translational Sciences (NCATS), 2010).
Screen size: about 370,000 compounds; about 150 (0.041%) were called active. Inconclusive results, whose numbers are uncertain, are shown with a selection of clear calls. Calls come from the whole dose curve; as a rule, active = well fitted inhibition curve with a large enough effect; inconclusive = small, poorly fitted or top-dose-only effect; inactive = flat fitted curve, though single readings scatter. Potencies of inconclusive entries are left out as doubtful fits.
Note: nearly all actives have a fitted effect of over 25% in size.
Potency is the fitted concentration of half-maximal effect; tags give direction and shape of the fitted curve.

The compounds below were run against Beta-lactamase (Escherichia coli (strain K12)) (UniProt P00811) (assay: qHTS Inhibitors of AmpC Beta-Lactamase (assay with detergent)). Conditions: AmpC hydrolysis of nitrocefin, absorbance 480 nm, 0.01% Triton; series mostly up to 114 µM.
Sequence of UniProt P00811 (P00811 whole entry, looked up): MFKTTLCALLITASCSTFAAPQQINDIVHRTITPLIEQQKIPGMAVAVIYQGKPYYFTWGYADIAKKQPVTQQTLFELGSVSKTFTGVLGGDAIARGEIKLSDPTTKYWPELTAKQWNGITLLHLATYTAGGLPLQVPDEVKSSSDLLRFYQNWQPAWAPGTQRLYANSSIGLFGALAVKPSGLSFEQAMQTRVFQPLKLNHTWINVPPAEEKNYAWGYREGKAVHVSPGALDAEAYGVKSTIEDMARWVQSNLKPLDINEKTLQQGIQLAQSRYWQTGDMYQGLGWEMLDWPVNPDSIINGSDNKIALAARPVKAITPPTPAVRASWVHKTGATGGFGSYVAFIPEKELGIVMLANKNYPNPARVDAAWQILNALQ
Method in brief: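 20 mM phosphate pH 7.0 + 0.01% (detergent screen) or 0.0001% Triton X-100; 5.3 nM AmpC reagent; cpd preinc 15 min RT; nitrocefin (800 uM stock) to start; A480 q20 s × 4 min; Activity was normalised to no-enzyme and no-compound control wells.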
`COC(=O)c1cc(C(=O)OCC(=O)NC2CCCC2)cc([N+](=O)[O-])c1` was tested, and the Potency was inconclusive [inhibitor, full curve, poor fit].
`Cc1cc(N/N=C/c2cccc(Br)c2)nc2ccccc12` was tested, and the Potency was inconclusive [inhibitor, partial curve, poor fit].
In the case of `COc1ccc(-c2cc(CCCC(=O)NCCc3ccccc3)no2)cc1`, the Potency is reported as “inactive”.
`CCN(CC)S(=O)(=O)c1cccc(NC(=O)CN2C(=O)c3ccc([N+](=O)[O-])cc3C2=O)c1` was tested, and the Potency was inconclusive [inhibitor, partial curve].
`COc1ccccc1NC(=O)Nc1ccncc1` was tested, and the Potency was inconclusive [inhibitor, single point].
With `COC(=O)c1c(-c2ccc(OC)cc2)sc2ccccc12` the Potency was “inactive”.
For `O=c1[nH]c(=S)[nH]c(O)c1C(c1ccccn1)c1c(O)[nH]c(=S)[nH]c1=O`, the Potency was “inactive”.
For `C(=C\CSc1ncn[nH]1)/CSc1ncn[nH]1`, the Potency was inconclusive [inhibitor, partial curve, poor fit].
`CCOC(=O)NC(Nc1nnc(SCC)s1)(C(F)(F)F)C(F)(F)F` was tested, and the Potency was inconclusive [inhibitor, full curve, poor fit].
In the case of `COc1ccc2cc(C(=O)NCC(=O)O)sc(=O)c2c1OC`, the Potency is reported as inconclusive [inhibitor, single point].
With `Cc1cccc(N2CN=C3SCC(=O)N3C2)c1` the Potency was inconclusive [inhibitor, single point].
With `CCOC(=O)CN1C(=O)CC(c2ccc([N+](=O)[O-])cc2)C1=O` (centres undefined) the Potency was inconclusive [inhibitor, partial curve, poor fit].
With `Nc1nnnn1/N=C/C=C/c1ccccc1` the Potency was inconclusive [inhibitor, full curve, poor fit].
In the case of `CCCN1CCN(S(=O)(=O)c2cn(C)nc2C)CC1`, the Potency is reported as “inactive”.
In the case of `CN1CCN(c2nc(C(N)=O)cc(-c3ccccc3)n2)CC1`, the Potency is reported as inconclusive [inhibitor, partial curve].
For `Cc1ccc(OCC(=O)NCc2ccco2)cc1C`, the Potency was inconclusive [inhibitor, single point].
With `CCn1c(-c2ccc(N)cc2)nc2ccccc21` the Potency was inconclusive [inhibitor, full curve, poor fit].
In the case of `O=[N+]([O-])c1cnccc1Nc1cccc(F)c1`, the Potency is reported as inconclusive [inhibitor, partial curve, poor fit].
In the case of `COc1ccc(-c2cc3ccc(OC(C)C(=O)O)cc3oc2=O)cc1` (centres undefined), the Potency is reported as inconclusive [inhibitor, full curve, poor fit].
